Laboratory results published in the supplement of paper PMC3334620.
Over roughly 33,000 sequences, “E-score (-0.5 to 0.5)” has its median near -0.035; the highest 2% begin near 0.35. The list shows a part of the results.

These sequences were tested against T1, Pdr3 (UniProt P33200) (assay: PBM E-score (8-mer binding enrichment) (E-score (-0.5 to 0.5)); higher = stronger / more preferred TF binding; most listed sequences are background and not binding sites). Conditions: protein concentration: 200 nM; construct: GST-full length.
T1 sequence: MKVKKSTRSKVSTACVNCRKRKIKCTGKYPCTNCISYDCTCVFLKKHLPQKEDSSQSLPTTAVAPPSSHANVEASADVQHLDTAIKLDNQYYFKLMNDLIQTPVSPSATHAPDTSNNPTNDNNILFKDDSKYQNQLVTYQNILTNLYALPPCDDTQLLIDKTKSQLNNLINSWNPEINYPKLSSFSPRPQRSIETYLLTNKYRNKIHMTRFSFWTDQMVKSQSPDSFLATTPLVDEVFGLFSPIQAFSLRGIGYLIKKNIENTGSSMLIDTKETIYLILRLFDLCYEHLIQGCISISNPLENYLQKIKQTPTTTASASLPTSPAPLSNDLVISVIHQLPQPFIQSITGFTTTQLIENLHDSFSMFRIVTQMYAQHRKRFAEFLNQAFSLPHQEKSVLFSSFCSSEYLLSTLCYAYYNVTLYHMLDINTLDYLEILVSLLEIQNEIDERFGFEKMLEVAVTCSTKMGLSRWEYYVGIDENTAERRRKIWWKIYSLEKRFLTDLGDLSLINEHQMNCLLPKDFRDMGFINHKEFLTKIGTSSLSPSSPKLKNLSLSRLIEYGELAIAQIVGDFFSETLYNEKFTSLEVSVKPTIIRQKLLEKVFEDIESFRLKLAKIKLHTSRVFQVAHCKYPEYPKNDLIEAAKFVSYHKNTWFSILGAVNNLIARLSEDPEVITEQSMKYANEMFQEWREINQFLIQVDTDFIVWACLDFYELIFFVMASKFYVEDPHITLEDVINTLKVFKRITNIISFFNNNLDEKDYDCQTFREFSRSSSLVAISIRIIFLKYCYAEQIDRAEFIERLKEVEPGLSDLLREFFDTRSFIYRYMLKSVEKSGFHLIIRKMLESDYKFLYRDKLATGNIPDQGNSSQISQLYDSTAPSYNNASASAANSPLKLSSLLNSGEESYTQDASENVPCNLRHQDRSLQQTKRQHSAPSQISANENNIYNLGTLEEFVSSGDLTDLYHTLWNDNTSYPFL
How it was run: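 PURExpress in vitro transcription/translation supplied GST-tagged yeast transcription factors, either full-length or DNA-binding domain. Applied at about 100-200 nM to universal all-10-mer Agilent arrays double-stranded by primer extension, the bound protein was detected with fluorescent anti-GST. E-scores, modified Wilcoxon-Mann-Whitney statistics, were given by the Universal PBM Analysis Suite to ungapped eight-base words pooled with their reverse complements after masliner normalisation.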

In order of rising “PBM E-score” value:
1. AGAACTCT  -0.263
2. CAAGTAGC  -0.262
3. CCCTTTCA  -0.208
4. CTAACTGA  -0.202
5. GTCGCCAC  -0.192
6. CCACACCA  -0.188
7. CTCTGGGA  -0.182
8. AGGCGGTA  -0.165
9. CAGGTAAG  -0.157
10. TGTACTAA  -0.156
11. CACATCTG  -0.154
12. ACCATGGA  -0.151
13. AAGAATGT  -0.149
14. CTCACCAG  -0.147
15. GTGGTCAA  -0.144
16. CCTTCGTA  -0.14
17. CCATAAAC  -0.137
18. GGTTACGA  -0.134
19. GCGTGGAC  -0.129
20. GCGACGCA  -0.126
21. CACTTTAC  -0.12
22. GACAAGTC  -0.114
23. GTAAGCGA  -0.108
24. AGCTTTTA  -0.106
25. ATTACAAG  -0.105
26. GTGGCCTA  -0.101
27. AGGACGCC  -0.101
28. TGAGCACA  -0.0994
29. TAAGCTAA  -0.098
30. ATTAAGGC  -0.093
31. AAGAAGAG  -0.0929
32. CATACACG  -0.0823
33. CTCTTCCA  -0.0819
34. ATGGGGTG  -0.0791
35. CAGCGAAA  -0.0644
36. TCATTTAA  -0.0612
37. GAATGACA  -0.059
38. AGGCACCG  -0.0476
39. CTGTTTAA  -0.0465
40. TCTGGTAA  -0.0417
41. ATGAATCA  -0.0384
42. CGGGCTAC  -0.0342
43. AGTGGGCA  -0.0328
44. ATGGATAC  -0.0299
45. AGTACGGG  -0.0162
46. AGACGCGC  -0.0156
47. GAAATACA  -0.0151
48. GATCAATA  -0.0113
49. CGATAGTC  -0.0106
50. CTGCAGGA  -0.00999
51. CGTGGCAA  -0.00986
52. AGTCCACC  -0.00463
53. CGTCCACG  -0.00241
54. ACCAAGTC  -0.00114
55. AATCGCAA  0.00128
56. CGTCTAAC  0.002
57. ATAACGGG  0.0143
58. TTGATAAA  0.0182
59. CGGTGCAA  0.0185
60. GAGAGGCA  0.0187
61. CAATTCAC  0.0212
62. ACATTATA  0.0218
63. TGCCGCAA  0.0272
64. AGGTCGAA  0.0331
65. AATAGCGT  0.0358
66. AAGTAAAC  0.0413
67. ATAATTCG  0.0457
68. CGTGTCTA  0.0459
69. GGGTGGCA  0.0491
70. CTAATCAA  0.0558
71. GGTCCCAC  0.0558
72. ACGCGAAC  0.0625
73. GTACCGAC  0.0628
74. CCCCGACA  0.0765
75. CGACCCGA  0.0813
76. AAACAAAG  0.0976
77. GCTAATAC  0.114
78. CTTTCGGC  0.122
79. CGAGATAC  0.128
80. CGAGCTCA  0.197
81. CCGTATCA  0.22
82. CCAGGCGG  0.233
83. CACGGGGA  0.247
84. ATACCGGC  0.28
85. TCCGAGAA  0.352
86. AATTCCGT  0.449
